Laboratory results from PubChem BioAssay (Tox21).
Several values for one entry are separate records, joined by “and”; a condition that tells them apart may be missing. Equal entries are not always repeated. Inconclusive means that the source gave no clear call. Such entries were picked first, then a sample of the others. For some of these results: A potency beside an inconclusive call is a rough fit, not a confirmed value. The source holds several records for some structures; these can differ, active in one and inactive in another. Activity calls are given as the source filed them. Unless noted, calls follow the shape of the dose curve; as a rule, active = well fitted curve in the direction sought with a large enough effect in the repeat runs; inconclusive = weak or mixed curves; inactive = no such curve, though single readings can be large; an effect the other way counts as inactive or inconclusive.

Columns and labels:
[1] = qHTS assay for small molecule agonists of the antioxidant response element (ARE) signaling pathway (AID 743202; active = well fitted activation curve with a large enough effect in the signal ratio in the repeat runs, not every such curve was filed as active; inconclusive = weak or mixed curves, or effect the other way; inactive = no such curve, though single readings can be large or run the other way; the % refers to the signal ratio; also: potency is read from the fitted curve at half-maximal effect; as to activation: % is scaled to controls: 0 for no effect and ±100 for the full control effect); conditions: HepG2 ARE-bla reporter, beta-lactamase FRET, 16 h; activation: at 73.3 µM (top of the series) unless noted
Summary of the method: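 Following a 16 h, 37 C exposure of reporter HepG2 cells (ARE-driven beta-lactamase, 2,000 cells/well) to compounds, FRET substrate was applied for 2 h at room temperature and fluorescence intensity recorded.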

[2] = qHTS assay for small molecule activators of the heat shock response signaling pathway (AID 743210; active = well fitted activation curve with a large enough effect in the signal ratio in the repeat runs, with a control signal flat, not every such curve was filed as active; inconclusive = weak or mixed curves; the % refers to the signal ratio; also: potency is read from the fitted curve at half-maximal effect; as to activation: % is scaled to controls: 0 for no effect and ±100 for the full control effect); conditions: HeLa HSE-bla reporter, beta-lactamase ratio, 5 h; activation: at 62.6 µM (top of the series)
Summary of the method: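 Heat shock element–beta-lactamase HeLa reporter cells; qHTS with compounds for 5 h at 37 C; detection by FRET substrate fluorescence after 2.5 h at RT.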

[3] = qHTS assay to identify small molecule agonists of the peroxisome proliferator-activated receptor delta (PPARd) signaling pathway - cell viability counter screen (AID 743211); conditions: PPARd-bla HEK293H viability, CellTiter-Glo luminescence, 17 h; activity change, negative = cytotoxicity: at 62.6 µM (top of the series) unless noted; also: potency is read from the fitted curve at half-maximal effect; nearly all actives have a fitted effect of over 55% in size
Summary of the method: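 qHTS cell viability: PPARd-bla HEK293H; 17 h cpd, 37C; CellTiter-Glo, luminescence at 30 min RT.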

[4] = target: Peroxisome proliferator-activated receptor delta (Homo sapiens) (UniProt Q03181); assay: qHTS assay to identify small molecule agonists of the peroxisome proliferator-activated receptor delta (PPARd) signaling pathway (AID 743212; calls by dose curve;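 also: HEK293H cells with PPARd UAS beta-lactamase reporter GeneBLAzer system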; also: potency is read from the fitted curve at half-maximal effect); conditions: HEK293H PPARd-UAS-bla, beta-lactamase FRET ratio, 17 h; activation: at 62.6 µM (top of the series) unless noted
Summary of the method: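 Beta-lactamase reporter read by fluorescence (LiveBLAzer B/G FRET, 2 h, room temperature). Test agents, in DMSO, incubated at 37 C with PPARd-bla HEK293H cells.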

[5] = qHTS assay to identify small molecule antagonists of the peroxisome proliferator-activated receptor delta (PPARd) signaling pathway - cell viability counter screen (AID 743213); conditions: PPARd-bla HEK293H viability, CellTiter-Glo luminescence, 17 h; viability change, negative = cytotoxic: at 62 µM (top of the series) unless noted; also: nearly all actives have a fitted effect of over 50% in size; also: potency is read from the fitted curve at half-maximal effect
Summary of the method: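 Cytotoxicity counter screen: CellTiter-Glo luminescence read 30 min after addition, in the same wells as the reporter assay. There, PPARd UAS-bla HEK293H cells (3000/well) were treated 17 h at 37 C with compound and 300 nM L165041.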

[6] = target: Peroxisome proliferator-activated receptor delta (Homo sapiens) (UniProt Q03181); assay: qHTS assay to identify small molecule antagonists of the peroxisome proliferator-activated receptor delta (PPARd) signaling pathway (AID 743215; active = well fitted inhibition curve with a large enough effect in the signal ratio in the repeat runs, not every such curve was filed as active; inconclusive = weak or mixed curves, or effect the other way; inactive = no such curve, though single readings can be large or run the other way; the % refers to the signal ratio;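 also: cells stimulated with agonist L165041 at 300 nM final during compound exposure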; also: potency is read from the fitted curve at half-maximal effect); conditions: HEK293H PPARd-UAS-bla, beta-lactamase FRET ratio, antagonist, 17 h
Summary of the method: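 Fluorescence from cleaved LiveBLAzer B/G FRET substrate (2 h, room temperature) reports PPARd-driven beta-lactamase in HEK293H UAS-bla cells. Cells had been treated 17 h at 37 C with compound plus 300 nM final L165041.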

[7] = target: Bile acid receptor (Homo sapiens) (UniProt Q96RI1); assay: qHTS assay to identify small molecule antagonists of the farnesoid-X-receptor (FXR) signaling pathway (AID 743217; active = well fitted inhibition curve with a large enough effect in the signal ratio in the repeat runs, not every such curve was filed as active; inconclusive = weak or mixed curves, or effect the other way; inactive = no such curve, though single readings can be large or run the other way; the % refers to the signal ratio; also: % is scaled to controls: 0 for no effect and ±100 for the full control effect); conditions: HEK293T FXR-UAS-bla, beta-lactamase ratio, CDCA-stimulated, 16 h; activity change, negative = inhibition: at 62.6 µM (top of the series) unless noted
Summary of the method: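 FRET fluorescence after 2 h room-temperature LiveBLAzer loading gives the readout. Prior step: FXR-bla HEK 293T cells, seeded and incubated 5 h, received test compounds plus 50 uM final CDCA for 16 h at 37 °C.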

[8] = target: Vitamin D3 receptor (Homo sapiens) (UniProt P11473); assay: qHTS assay to identify small molecule antagonists of the vitamin D receptor (VDR) signaling pathway (AID 743223; active = well fitted inhibition curve with a large enough effect in the signal ratio in the repeat runs, not every such curve was filed as active; inconclusive = weak or mixed curves, or effect the other way; inactive = no such curve, though single readings can be large or run the other way; the % refers to the signal ratio; also: potency is read from the fitted curve at half-maximal effect); conditions: VDR-UAS-bla HEK293T, beta-lactamase FRET ratio, 16 h; activity change, negative = inhibition: at 61 µM (top of the series) unless noted
Summary of the method: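 Reporter line VDR-bla; stimulus 1alpha,25-(OH)2 vitamin D3, 3 nM final; compound co-addition, 16 h 37C/5% CO2; LiveBLAzer B/G substrate 2 h RT; fluorescence intensity.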

[9] = qHTS assay to identify small molecule agonists of the vitamin D receptor (VDR) signaling pathway - cell viability counter screen (AID 743224); also: nearly all actives have a fitted effect of over 50% in size; also: potency is read from the fitted curve at half-maximal effect
Summary of the method: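 In parallel with the bla FRET readout, cytotoxicity toward VDR-bla cells after 16 h compound exposure was assessed by CellTiter-Glo, with luminescence recorded after a 30 min room-temperature incubation.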

[10] = qHTS assay for small molecule agonists of the antioxidant response element (ARE) signaling pathway - cell viability counter screen (AID 743203; calls by dose curve; also: potency is read from the fitted curve at half-maximal effect; nearly all actives have a fitted effect of over 55% in size)
Summary of the method: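 Measured in the same wells as the beta-lactamase ARE reporter, this read-out is CellTiter-Glo luminescence from HepG2 ARE-bla cells given compounds for 16 hrs.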

[11] = qHTS assay to identify small molecule agonists of the farnesoid-X-receptor (FXR) signaling pathway - cell viability counter screen (AID 743218); conditions: FXR-bla HEK293T viability, CellTiter-Glo luminescence, 16 h; viability change, negative = cytotoxic: at 62.6 µM (top of the series) unless noted; also: nearly all actives have a fitted effect of over 45% in size; also: potency is read from the fitted curve at half-maximal effect
Summary of the method: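 Readout: CellTiter-Glo luminescence, 30 min RT, multiplexed after the FXR-bla FRET reading. HEK 293T FXR-UAS-bla cells received compound 5 h post-plating and were incubated 16 h at 37 C.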

[12] = target: Vitamin D3 receptor (Homo sapiens) (UniProt P11473); assay: qHTS assay to identify small molecule agonists of the vitamin D receptor (VDR) signaling pathway (AID 743222; calls by dose curve; also: potency is read from the fitted curve at half-maximal effect); conditions: HEK293T VDR-UAS-bla, beta-lactamase FRET ratio, 16 h; activation: at 63.5 µM (top of the series) unless noted
Summary of the method: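 Following 4 h attachment at 37C, VDR-bla cells (2,000 per well) received DMSO-dissolved compounds or controls. After 16 h incubation, LiveBLAzer B/G FRET substrate was added and fluorescence read 2 h later at room temperature.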

[13] = qHTS assay to identify small molecule antagonists of the vitamin D receptor (VDR) signaling pathway - cell viability counter screen (AID 743225); conditions: VDR-bla HEK293T viability, CellTiter-Glo luminescence, 16 h; viability change, negative = cytotoxic: at 61 µM (top of the series) unless noted; also: nearly all actives have a fitted effect of over 50% in size; also: potency is read from the fitted curve at half-maximal effect
Summary of the method: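 Parallel cytotoxicity test: VDR-UAS-bla HEK 293T, 3 nM (final) 1-alpha,25-dihydroxyvitamin D3 with test compound, 16 h, 37C. Endpoint is CellTiter-Glo luminescence in the same wells.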

[14] = target: Bile acid receptor (Homo sapiens) (UniProt Q96RI1); assay: qHTS assay to identify small molecule agonists of the farnesoid-X-receptor (FXR) signaling pathway (AID 743220; active = well fitted activation curve with a large enough effect in the signal ratio in the repeat runs, not every such curve was filed as active; inconclusive = weak or mixed curves, or effect the other way; the % refers to the signal ratio; also: % is scaled to controls: 0 for no effect and ±100 for the full control effect); conditions: HEK293T FXR-UAS-bla, beta-lactamase FRET ratio, 16 h; activation: at 62.6 µM (top of the series) unless noted
Summary of the method: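 FXR-UAS-bla HEK 293T cells carrying a UAS-driven beta-lactamase reporter were plated for 5 h at 37C/5% CO2, then exposed to DMSO-dissolved Tox21 10K compounds for 16 h at 37C. A LiveBLAzer B/G FRET substrate was loaded for 2 h at room temperature before fluorescence reading.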

[15] = qHTS assay to identify small molecule antagonists of the peroxisome proliferator-activated receptor gamma (PPARg) signaling pathway - cell viability counter screen (AID 743194); conditions: PPARg-bla HEK293H viability, CellTiter-Glo luminescence, 17 h; Potency: co-treated with 50 nM rosiglitazone unless noted; activity change, negative = cytotoxicity: at 62.6 µM (top of the series), co-treated with 50 nM rosiglitazone unless noted; also: % is scaled to controls: 0 for no effect and ±100 for the full control effect; nearly all actives have a fitted effect of over 55% in size
Summary of the method: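 PPARg-UAS-bla HEK293H cells were plated, rested 5 h at 37 C, then treated with compounds plus rosiglitazone (50 nM final) for 17 h at 37 C; viability was then read by CellTiter-Glo luminescence after 30 min at room temperature.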

[16] = ratio activity, negative = inhibition: at 62 µM (top of the series) unless noted
Tags tell the direction and shape of the fitted curve or compound fluorescence and quenching.

Chain of UniProt P11473 (P11473 whole entry, looked up): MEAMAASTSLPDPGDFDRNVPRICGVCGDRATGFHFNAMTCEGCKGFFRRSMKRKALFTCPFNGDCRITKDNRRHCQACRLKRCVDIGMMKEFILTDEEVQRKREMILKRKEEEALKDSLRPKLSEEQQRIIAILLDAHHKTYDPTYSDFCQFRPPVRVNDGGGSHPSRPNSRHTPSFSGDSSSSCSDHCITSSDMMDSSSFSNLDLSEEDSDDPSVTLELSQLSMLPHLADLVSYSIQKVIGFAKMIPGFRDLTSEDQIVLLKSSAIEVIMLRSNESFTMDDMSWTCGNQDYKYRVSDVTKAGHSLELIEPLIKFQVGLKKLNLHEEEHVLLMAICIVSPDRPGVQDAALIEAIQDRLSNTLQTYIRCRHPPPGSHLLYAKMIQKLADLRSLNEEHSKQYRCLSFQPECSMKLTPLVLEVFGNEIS
Chain of UniProt Q03181 (Q03181 whole entry, looked up): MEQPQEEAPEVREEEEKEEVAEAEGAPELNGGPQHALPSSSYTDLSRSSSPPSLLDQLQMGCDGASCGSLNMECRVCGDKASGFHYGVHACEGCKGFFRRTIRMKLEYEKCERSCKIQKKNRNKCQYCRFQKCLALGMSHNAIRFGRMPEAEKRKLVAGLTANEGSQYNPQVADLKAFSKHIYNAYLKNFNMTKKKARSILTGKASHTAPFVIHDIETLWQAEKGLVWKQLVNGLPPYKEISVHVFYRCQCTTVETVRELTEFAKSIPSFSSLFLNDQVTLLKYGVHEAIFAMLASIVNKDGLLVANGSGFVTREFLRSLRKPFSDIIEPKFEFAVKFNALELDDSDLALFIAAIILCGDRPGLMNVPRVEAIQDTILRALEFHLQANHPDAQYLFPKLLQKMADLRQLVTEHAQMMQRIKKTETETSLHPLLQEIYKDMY
Chain of UniProt Q96RI1 (Q96RI1 whole entry, looked up): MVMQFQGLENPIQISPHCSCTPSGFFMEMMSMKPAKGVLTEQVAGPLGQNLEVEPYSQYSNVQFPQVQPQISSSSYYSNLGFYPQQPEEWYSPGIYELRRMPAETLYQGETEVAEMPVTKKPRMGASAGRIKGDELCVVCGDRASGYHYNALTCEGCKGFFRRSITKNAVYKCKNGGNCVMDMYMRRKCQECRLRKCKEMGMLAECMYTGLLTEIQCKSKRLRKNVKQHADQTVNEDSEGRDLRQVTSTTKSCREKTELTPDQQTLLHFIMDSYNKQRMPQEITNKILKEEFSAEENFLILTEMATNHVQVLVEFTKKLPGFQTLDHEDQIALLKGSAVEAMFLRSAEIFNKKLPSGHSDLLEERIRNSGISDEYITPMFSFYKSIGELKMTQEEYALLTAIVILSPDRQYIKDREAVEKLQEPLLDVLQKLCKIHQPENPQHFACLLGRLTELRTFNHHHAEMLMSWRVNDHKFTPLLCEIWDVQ

SMILES: Cl/C=C/CCl
- Potency [1]: inactive
- Potency [2]: inactive

SMILES: Cc1cc(C2CC2)nc(Nc2ccccc2)n1
- Potency [1]: active: 27.3 µM
- Potency [2]: inconclusive: 38.9 µM
- Potency [3]: inconclusive: 61.6 µM [cytotoxic, single point]
- Potency [4]: inconclusive: 54.9 µM [partial curve, poor fit]
- Potency [5]: inconclusive: 54.9 µM [cytotoxic, single point]
- Potency [6, 16]: inconclusive: 54.9 µM
- activity change, negative = inhibition [7]: inconclusive: -25.3%
- Potency [8]: inconclusive: 61.6 µM [inhibitor, single point]
- Potency [9]: inconclusive: 61.6 µM [cytotoxic, single point]

SMILES: CCO[C@H]1O[C@@H]2OC3(C)CC[C@H]4[C@H](C)CC[C@@H]([C@H]1C)[C@@]24OO3
- activation [1]: inconclusive: 23%
- ratio activity, negative = inhibition [6, 16]: inconclusive: 1.27%

SMILES: O=[N+]([O-])[O-].[Tl+]
- activation [1]: inconclusive: 7.35% [at 94.8 µM]
- Potency [10]: inconclusive: 0.616 µM [cytotoxic, full curve]
- Potency [5]: inconclusive: 44 µM [rising, partial curve, poor fit]
- Potency [11]: inactive
- Potency [9]: inconclusive: 12.4 µM [cytotoxic, partial curve, poor fit]

SMILES: O=C(O)COc1ccc(Cl)cc1Cl
- activation [1]: inconclusive: 14.4%
- Potency [4]: inconclusive: 21.8 µM [rising, partial curve]
- activation [4]: inconclusive: -0.884%
- ratio activity, negative = inhibition ([6]; at 62 µM (top of the series)): inactive: -5.67% and inactive: 0.427% and inactive: -2.36%
- ratio activity, negative = inhibition ([6]; at 80.4 µM (top of the series)): inactive: 9.41%
- ratio activity, negative = inhibition [6, 16]: inconclusive: 7.25%
- Potency [12]: inconclusive: 61.6 µM and inconclusive: 21.9 µM [fluorescent, single point]
- viability change, negative = cytotoxic [13]: inconclusive: 1.94% [cytotoxic]

SMILES: Cl/C=C/Cl
- Potency [1]: inconclusive: 54.5 µM [rising, partial curve, poor fit]
- Potency [4]: inactive
- Potency [11]: inconclusive: 0.0034 µM [rising, full curve, poor fit]
- activation [12]: inconclusive: 0.709% [at 81.1 µM]
- activity change, negative = inhibition [8]: inconclusive: 21.7% [at 78.8 µM]

SMILES: C#CCC1=C(C)C(OC(=O)C2C(C=C(C)C)C2(C)C)CC1=O (stereo not drawn)
- Potency [1]: inconclusive: 68.1 µM
- Potency [2]: inconclusive: 61.2 µM [activator]
- Potency [3]: inconclusive: 61.2 µM [cytotoxic, single point]
- Potency [4]: inconclusive: 7.71 µM [rising, partial curve, poor fit]
- activity change, negative = inhibition [7]: inconclusive: -25.1%
- activation [14]: inconclusive: 7.39%
- activity change, negative = inhibition [8]: inconclusive: 8.56%
- Potency [13]: inconclusive: 21.7 µM [cytotoxic, single point]

SMILES: CC(C(O)c1ccccc1)N(C)C/C=C/c1ccccc1 (stereo not drawn)
- activation [1]: inconclusive: 35.6%
- Potency [3]: inconclusive: 26.6 µM [cytotoxic, partial curve, poor fit]
- Potency [13]: inconclusive: 0.239 µM [cytotoxic, single point]

SMILES: Oc1c(Cl)cccc1Cl
- activation [1]: inconclusive: 1.06%
- Potency [2]: inactive

SMILES: C[N+](C)(C)C
- Potency [1]: inactive

SMILES: COc1ccc(Cc2nccc3cc(OC)c(OC)cc23)cc1OC
- Potency [1]: inconclusive: 3.76 µM [rising, full curve]
- Potency [2]: inactive
- Potency [6, 16]: inconclusive: 11.9 µM [activator, partial curve]

SMILES: N#Cc1ccc(Cl)cc1
- Potency [1]: inactive
- Potency [5]: inactive
- ratio activity, negative = inhibition [6, 16]: inconclusive: -2.84%

SMILES: ClP(Cl)(Cl)(Cl)Cl
- Potency [15]: inactive
- Potency [9]: inactive

SMILES: Nc1nc(N)nc(Cl)n1
- Potency [1]: inactive
- Potency [2]: inactive
- Potency [13]: inactive

SMILES: CN(C)CCc1c[nH]c2cccc(OP(=O)(O)O)c12
- Potency [15]: inactive
- Potency [5]: inactive
